From PubChem BioAssay AID504332 (National Center for Advancing Translational Sciences (NCATS), 2011)
Screen size: about 350,000 compounds; about 31,000 (8.9%) were called active. Inconclusive results, whose numbers are uncertain, are shown with a selection of clear calls. Calls follow the shape of the dose curve; as a rule, active = well fitted inhibition curve with a large enough effect; inconclusive = small, poorly fitted or top-dose-only effect; inactive = no such curve, though single readings can be large or run the other way. A potency beside an inconclusive call is a rough fit, not a confirmed value.

Target: Histone-lysine N-methyltransferase EHMT2 (Homo sapiens) (UniProt Q96KQ7)
UniProt Q96KQ7, sequence (Q96KQ7 whole entry, looked up): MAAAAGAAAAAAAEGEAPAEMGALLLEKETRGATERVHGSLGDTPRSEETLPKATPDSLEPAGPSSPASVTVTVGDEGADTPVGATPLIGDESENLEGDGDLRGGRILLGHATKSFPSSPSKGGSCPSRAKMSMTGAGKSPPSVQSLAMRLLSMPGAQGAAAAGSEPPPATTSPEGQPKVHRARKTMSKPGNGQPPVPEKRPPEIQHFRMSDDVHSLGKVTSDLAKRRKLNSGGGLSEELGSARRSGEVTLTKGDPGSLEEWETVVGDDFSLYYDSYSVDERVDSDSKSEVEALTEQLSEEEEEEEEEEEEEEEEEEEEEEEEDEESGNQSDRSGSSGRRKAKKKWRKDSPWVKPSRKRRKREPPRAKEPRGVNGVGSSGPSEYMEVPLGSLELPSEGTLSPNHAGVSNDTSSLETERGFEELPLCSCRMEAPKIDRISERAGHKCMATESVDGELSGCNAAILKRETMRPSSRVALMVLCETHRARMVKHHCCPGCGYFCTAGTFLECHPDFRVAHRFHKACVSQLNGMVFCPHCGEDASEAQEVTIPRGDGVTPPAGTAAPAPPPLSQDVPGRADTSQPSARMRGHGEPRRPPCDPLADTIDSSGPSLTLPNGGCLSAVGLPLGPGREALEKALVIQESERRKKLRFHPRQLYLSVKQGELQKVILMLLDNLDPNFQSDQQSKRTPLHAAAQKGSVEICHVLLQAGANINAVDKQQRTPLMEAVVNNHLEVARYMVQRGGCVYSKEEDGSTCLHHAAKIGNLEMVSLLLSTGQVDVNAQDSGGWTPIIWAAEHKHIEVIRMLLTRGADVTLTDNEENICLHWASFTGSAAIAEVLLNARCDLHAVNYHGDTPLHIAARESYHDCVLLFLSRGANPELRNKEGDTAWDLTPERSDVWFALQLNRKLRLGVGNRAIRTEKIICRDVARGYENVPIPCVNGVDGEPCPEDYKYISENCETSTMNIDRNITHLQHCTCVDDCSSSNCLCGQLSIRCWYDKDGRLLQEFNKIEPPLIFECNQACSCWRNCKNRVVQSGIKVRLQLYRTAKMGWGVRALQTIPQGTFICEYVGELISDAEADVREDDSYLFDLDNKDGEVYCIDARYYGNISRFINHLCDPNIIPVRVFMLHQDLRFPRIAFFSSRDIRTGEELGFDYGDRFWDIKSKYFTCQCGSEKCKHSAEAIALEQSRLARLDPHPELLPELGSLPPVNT
Test: qHTS Assay for Inhibitors of Histone Lysine Methyltransferase G9a; also: nearly all actives have a fitted effect of over 75% in size
Conditions: G9a H3K9 monomethylation, AlphaScreen, 2 h; activity, negative = inhibition: at 59 µM (top of the series) unless noted
Excerpt: Methylated lysines, on the N-terminal tails of histone proteins serve as epigenetic markers to recruit factors that can then modify local chromatin structure to lead to functional consequences. G9a and other members of the SUV39 family of the SET domain-containing superfamily of histone lysine methyltransferases (HMT) have been identified to specifically methylate Lys9 of histone H3 (H3K9). G9a catalyzes the mono- and di-methylation of H3K9 in mammalian euchromatic regions, where the resulting H3K9me2 is indicative of transcriptional repression. […] The inhibition of G9a will result in transcriptional activation and work synergistically with DNA methyltransferase and histone deacetylase inhibitors, to kill cancer cells. This qHTS assay for identification of G9a inhibitors is a chemiluminescence based AlphaScreen (PerkinElmer). Methylation of biotinylated-histone peptide is measured through specific antibody-based detection, in conjunction with streptavidin-coated donor and anti-IgG antibody-coated acceptor beads. The method is particularly well suited for detection of inhibitors acting by the desired histone peptide competitive mechanism and is applicable to testing other HMTs. Although AlphaScreen has significant advantages with its utility in a variety of epigenetic target assays, the primary screening data provided in this deposition should be used with caution due to the prevalence of screening artifacts. An AlphaScreen counterscreen is highly recommended to be run against any putative actives to eliminate non specific artifacts. Alternatively, one can use other AlphaScreen assays in PubChem to filter out promiscuous hits. Quinn et al. A chemiluminescence-based method for identification of histone lysine methyltransferase inhibitors. Mol Biosyst 6(5): 782-8. 2010. PMID: 20567762 [2] Baell,Holloway. New substructure filters for removal of pan assay interference compounds (PAINS) from screening libraries and for their exclusion in bioassays. J Med Chem. 53(7):2719-40. 2010. PMID: 20131845 NIH Molecular Libraries Probe Production Network [MLPCN] NIH Chemical Genomics Center [NCGC] Structural Genomics Consortium (SGC) NIH Grant: 5U54 MH084681-02
To each well of a 1,536w plate, 2ul of HMT enzyme (final 20nM) were added, using a nanoliter dispenser. The G9a- and GLP-inhibitor BIX-01294 (CID: 25150857) are used as an intraplate control, with a 16-point titration in duplicate. A Kalypsys pin-tool transferred 23nl of library compound solution in DMSO to each well. Following a 15 min incubation of enzyme with compounds at room temperature, 1ul mixture of b-H3K9 peptide substrate (final 500nM) and SAM cofactor (final 20uM) were added. Reactions were allowed to proceed at room temperature for 2 hours. Methylated b-H3K9 peptide product was detected with 0.5 ug/mL rabbit polyclonal anti-monomethyl histone H3K9 antibody (Abcam Inc., Cambridge, MA) and 20 ug/mL each streptavidin-coated donor and anti-rabbit IgG acceptor AlphaScreen beads. Antibody and beads were added in a 1ul dispense, for a final volume of 4ul, and plates were incubated, protected from the light, for 10 min at room temperature. Microplates were then read on an EnVision multilabel plate reader using the 1,536 plate HTS AlphaScreen aperture (excitation time 80 ms, measurement time 240 ms).
% is scaled to controls: 0 for no effect and ±100 for the full control effect; potency is read from the fitted curve at half-maximal effect; tags tell the direction and shape of the fitted curve.

| SMILES | Potency | activity, negative = inhibition |
| --- | --- | --- |
| Cc1ccc(CNC(=O)Cn2ccn(-c3cc(C)cc(C)c3)c(=O)c2=O)cc1 | inconclusive: 8.91 µM [inhibitor, partial curve, poor fit] |  |
| Cn1cccc1CNC(=S)Nc1cc(F)cc(F)c1 | inactive |  |
| Cc1ccc(N(C(=O)c2ccco2)C(C(=O)NC2CCCC2)c2ccco2)c(C)c1 (stereo not drawn) | inconclusive: 89.1 µM [inhibitor, partial curve, poor fit] |  |
| CCN(CC)C(=O)CN(C)S(=O)(=O)c1cccc2nsnc12 | inactive |  |
| O=C(OCc1nnc(-c2ccc([N+](=O)[O-])cc2)o1)C1CCN(C(=O)c2ccc(Cl)cc2)CC1 | inconclusive: 79.4 µM [inhibitor, partial curve, poor fit] |  |
| CC1=C(C(=O)Nc2ccccc2)C(c2cccs2)n2nc(SCc3ccccc3)nc2N1 (stereo not drawn) | inactive |  |
| N=C1/C(=C/c2cccn2-c2cccc([N+](=O)[O-])c2)C(=O)N=C2SC=CN12 | inactive |  |
| CC(=O)[C@H]1[C@@H]2C(=O)N(c3cccc(Cl)c3)C(=O)[C@@H]2[C@H]2c3ccccc3C=CN21 | active: 1.41 µM |  |
| Cc1ccc(C(=O)c2ccc([N+](=O)[O-])cc2)cc1C | inconclusive: 3.16 µM [inhibitor, single point] |  |
| CCOC(=O)C1CCN(S(=O)(=O)c2ccc3c(c2)NC(=O)C(C)S3)CC1 (stereo not drawn) | inconclusive: 100 µM [inhibitor, single point] |  |
| Cc1cc(N2CCN(c3nc(-c4ccc([N+](=O)[O-])cc4)cs3)CC2)c2ccccc2n1 | inconclusive: 79.4 µM [inhibitor, partial curve, poor fit] |  |
| CC(OC(=O)Cc1ccccc1[N+](=O)[O-])C(=O)Nc1ccc(Cl)cn1 (stereo not drawn) | inconclusive: 79.4 µM [inhibitor, partial curve, poor fit] |  |
| Cc1ccc2oc(=O)c3cnn(CC(=O)NC4CCCCC4C)c3c2c1 (stereo not drawn) | inconclusive: 89.1 µM [inhibitor, single point] |  |
| Nc1ccc(Br)cc1C(=O)O | inconclusive: 22.4 µM [inhibitor, single point] |  |
| Cc1cc(C(=O)OCn2nnc3ccccc3c2=O)c(C)o1 | inconclusive: 70.8 µM [inhibitor, partial curve] |  |
| Cc1[nH]nc2c1[C@@H](c1ccccc1[N+](=O)[O-])C(C#N)=C(N)O2 | inconclusive: 89.1 µM [inhibitor, single point] |  |
| Cc1cc(C)c2c(CC(=O)NC(C)C)coc2c1 | inactive |  |
| CCCN1Cc2cccc(C(=O)Nc3ccc4c(c3)OCCO4)c2C1=O | inconclusive: 89.1 µM [inhibitor, single point] |  |
| Cc1ccc(Cn2c(C(=O)NCCCN3CCOCC3)cc3sccc32)cc1 | inconclusive: 31.6 µM [inhibitor, single point] |  |
| C=CCn1c(N)c(-c2nc3ccccc3n2C)sc1=S | inconclusive: 3.98 µM [inhibitor, single point] |  |
| COc1ccc(Nc2nnc(SC(C(=O)Nc3cc(C)ccc3C)c3ccccc3)s2)cc1 (stereo not drawn) | active: 50.1 µM |  |
| CC(CCC(=O)O)C1CCC2C3CC[C@H]4CC(O)CC[C@@]4(C)C3CC[C@@]12C (stereo partly drawn) |  | inactive: -38.6% [at 2.33 µM] |
| Cc1ccc(S(=O)(=O)NCCC(=O)NCc2ccco2)cc1 | inconclusive: 100 µM [inhibitor, single point] |  |

| SMILES | Potency | activity, negative = inhibition |
| --- | --- | --- |
| Cc1ccc([N+](=O)[O-])cc1NC(=S)NC(=O)CC(C)(C)C | inactive |  |
| O=C(O)CSc1c2c(nc3cc(C(=O)NCCN4CCOCC4)ccc13)CCC2 | inconclusive: 89.1 µM [inhibitor, partial curve, poor fit] |  |
| CC(=O)N(C1CC(C)C(C#N)(C#N)C1(C#N)C#N)N(C)C (stereo not drawn) | active: 12.6 µM |  |
| Cc1ccc2nc(SCC(=O)NC(=O)NCc3ccco3)[nH]c2c1 | inconclusive: 11.2 µM [inhibitor, partial curve, poor fit] |  |
| CCOc1cccc2sc(N(CCCN(C)C)C(=O)c3ccc(C(=O)c4ccccc4)cc3)nc12 | active: 70.8 µM |  |
| CCOC(=O)C1=C(COC(=O)CNC(=O)c2cc(OC)c(OC)c(OC)c2)NC(=O)NC1C (stereo not drawn) | inactive |  |
| Cc1csc(SCC(=O)Nc2ccc(Cl)cn2)n1 | inconclusive: 22.4 µM [inhibitor, single point] |  |
| O=C(CCl)Oc1ccc2occ(C(=O)c3cccs3)c2c1 | inconclusive: 89.1 µM [inhibitor, single point] |  |
| COc1ccc(N2CCN(c3ccc(N)cc3C#N)CC2)cc1 |  | inconclusive: -79.7% [inhibitor] |
| COc1ccc(-n2c(Cc3cc(=O)[nH]c(=O)[nH]3)nnc2SCC(=O)NC2CCCC2)cc1 | inconclusive: 89.1 µM [inhibitor, single point] |  |
| Cc1noc(C)c1CN1C(=O)NC2(CCc3ccccc3C2)C1=O (stereo not drawn) | inactive |  |
| O=C(CN1CCCC1=O)NC1(C(F)(F)F)NC(=O)N(Cc2ccccc2)C1=O (stereo not drawn) | inconclusive: 7.94 µM [inhibitor, full curve, poor fit] |  |
| O=c1cc(N2CCOCC2)oc2c(-c3ccccc3)cccc12 |  | inactive: 51.1% [at 12.7 µM] |
| CCCCN(CC)Cc1ccc(CNS(=O)(=O)c2cc3c(cc2Cl)NC(=O)CO3)o1 | inactive |  |
| CC(C)OCCCNC(=O)c1c(N)n(/N=C/c2ccccn2)c2nc3ccccc3nc12 | inconclusive: 89.1 µM [inhibitor, single point] |  |
| CCOc1ccccc1NC(=O)C1CCCN(S(=O)(=O)c2cn(C)cn2)C1 (stereo not drawn) | inactive |  |
| O=c1c2ccccc2n2c(-c3ccc(C(F)(F)F)cc3)nnc2n1Cc1ccccc1 | inconclusive: 79.4 µM [inhibitor, single point] |  |
| CCOC(=O)N1CCc2c(sc3c2c(=O)n(-c2ccc(CC)cc2)c(=O)n3Cc2cc(C)ccc2C)C1 | inactive |  |
| Cc1nc(NCCc2ccccc2)c2oc3ccccc3c2n1 | active: 79.4 µM |  |
| Cc1ccc(C(=O)CSc2nc(-c3ccccc3)ccc2C#N)cc1 | inconclusive: 79.4 µM [inhibitor, single point] |  |
| COc1ccc(CCNS(=O)(=O)CCNC(=O)c2ccc3c(c2)OCO3)cc1 |  | inactive: 7.71% [at 0.501 µM] |
| O=C(O)c1ccccc1NCCO | active: 50.1 µM |  |
| O=c1cc[nH]c2ccc([N+](=O)[O-])cc12 | inconclusive: 44.7 µM [inhibitor, partial curve] |  |

| SMILES | Potency | activity, negative = inhibition |
| --- | --- | --- |
| COc1cc(-c2nn3c(C4CCCCC4)nnc3s2)cc(OC)c1OC | inconclusive: 7.08 µM [inhibitor, full curve, poor fit] |  |
| O=C1C2CCCN2C(=O)N1CCCN1CCN(c2cccc(Cl)c2)CC1 (stereo not drawn) | inactive |  |
| COc1ccc2[nH]c3c(=O)n(CCCCC(=O)N4CCCC4)c(=S)[nH]c3c2c1 | active: 2.24 µM |  |
| Cc1cc(N2CCN(c3nnnn3-c3ccccc3)CC2)n2ncnc2n1 | inconclusive: 31.6 µM [inhibitor, single point] |  |
| CCOC(=O)c1cnc(SCC(=O)c2ccccc2)nc1N | active: 28.2 µM |  |
| Cc1ccc2cc3c(N)c(C(=O)N4CCOCC4)sc3nc2c1 | active: 28.2 µM |  |
| O=C(OCc1nnc(-c2cccs2)o1)c1cccnc1Cl | inconclusive: 1.41 µM [inhibitor, full curve] |  |
| Cc1cc(C)c2nc(NC(=O)CN3C(=O)NC4(CCCC4)C3=O)sc2c1 | inconclusive: 79.4 µM [inhibitor, single point] |  |
| O=S(=O)(Nc1nc2ccccc2nc1-[n+]1cccc(N=C([O-])c2ccccc2Cl)c1)c1ccccc1 | inconclusive: 56.2 µM [inhibitor, partial curve] |  |
| O=C(CNC(=O)C(c1ccccc1)c1ccccc1)N/N=C/c1ccc(O)c([N+](=O)[O-])c1 | inconclusive: 79.4 µM [inhibitor, single point] |  |
| O/N=C/c1ccn(-c2ccc(Br)cc2)c1 | inconclusive: 39.8 µM [inhibitor, partial curve, poor fit] |  |
| CCc1nnc(NC(=O)CSc2nc3c([nH]c4ccccc43)c(=O)n2-c2ccc(OC)cc2)s1 | inactive |  |
| CCN(Cc1ccccc1)C(=O)C1CCC(CNc2c(N3CCOCC3)c(=O)c2=O)CC1 (stereo not drawn) | inconclusive: 89.1 µM [inhibitor, single point] |  |
| O=C(CSc1nc2c(c(=O)n1-c1ccccc1)SCC2)N1CCN(c2ccccc2)CC1 | active: 44.7 µM |  |
| O=C(CCN1C(=O)/C(=C/c2cccc(Br)c2)SC1=S)Nc1cccnc1 | inconclusive: 39.8 µM [inhibitor, partial curve, poor fit] |  |
| O=C(COC(=O)CNC(=O)c1ccc(Cl)cc1Cl)NC1CCCCCCC1 | inconclusive: 56.2 µM [inhibitor, partial curve, poor fit] |  |
| CCOC(=O)c1c(Nc2cccc(C)c2)nnc(-c2ccccc2)c1-c1ccccc1 | inconclusive: 3.16 µM [inhibitor, partial curve, poor fit] |  |
| CC(C)CC(c1nnnn1C1CCCCC1)N1CCN(C(=O)c2ccco2)CC1 (stereo not drawn) | inconclusive: 89.1 µM [inhibitor, single point] |  |
| CC1(C)OC(=O)C(=NNc2ccccc2[N+](=O)[O-])C(=O)O1 | inconclusive: 79.4 µM [inhibitor, single point] |  |
| CC(NC(=O)C(C)N1c2cccc3cccc(c23)S1(=O)=O)c1ccccc1 (stereo not drawn) | inconclusive: 10 µM [inhibitor, full curve] |  |
| CC(C)(C)c1ccc(C(=O)NNC(=S)NCc2ccco2)cc1 | inconclusive: 39.8 µM [inhibitor, partial curve] |  |
| CCc1cccc(NC(=O)COc2cc(=O)n(CC)c3ccccc23)c1 | inconclusive: 8.91 µM [inhibitor, full curve, poor fit] |  |
